In all, about 110,000 compounds were measured (“z-score”: median about -0.1, highest 2% from about 2 on). Some of the results follow. Active and inactive are the calls of the source.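 Rule for the calls: active = z-score in the third read window above 3 or below -3; inactive = the rest.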

The target in this experiment is Metabotropic glutamate receptor 8 (Rattus norvegicus) (UniProt P70579). The experiment is described as follows: rat mGluR8 modulators via GIRK flux, primary screen, cell-based, thallium flux, HTS (AID 488969). The conditions noted are these: HEK293 rat mGluR8, GIRK (G protein-gated inwardly rectifying potassium channel) thallium flux, FluoZin2; at 10 µM; stronger effect = higher value.
UniProt P70579, sequence (P70579 whole entry, looked up): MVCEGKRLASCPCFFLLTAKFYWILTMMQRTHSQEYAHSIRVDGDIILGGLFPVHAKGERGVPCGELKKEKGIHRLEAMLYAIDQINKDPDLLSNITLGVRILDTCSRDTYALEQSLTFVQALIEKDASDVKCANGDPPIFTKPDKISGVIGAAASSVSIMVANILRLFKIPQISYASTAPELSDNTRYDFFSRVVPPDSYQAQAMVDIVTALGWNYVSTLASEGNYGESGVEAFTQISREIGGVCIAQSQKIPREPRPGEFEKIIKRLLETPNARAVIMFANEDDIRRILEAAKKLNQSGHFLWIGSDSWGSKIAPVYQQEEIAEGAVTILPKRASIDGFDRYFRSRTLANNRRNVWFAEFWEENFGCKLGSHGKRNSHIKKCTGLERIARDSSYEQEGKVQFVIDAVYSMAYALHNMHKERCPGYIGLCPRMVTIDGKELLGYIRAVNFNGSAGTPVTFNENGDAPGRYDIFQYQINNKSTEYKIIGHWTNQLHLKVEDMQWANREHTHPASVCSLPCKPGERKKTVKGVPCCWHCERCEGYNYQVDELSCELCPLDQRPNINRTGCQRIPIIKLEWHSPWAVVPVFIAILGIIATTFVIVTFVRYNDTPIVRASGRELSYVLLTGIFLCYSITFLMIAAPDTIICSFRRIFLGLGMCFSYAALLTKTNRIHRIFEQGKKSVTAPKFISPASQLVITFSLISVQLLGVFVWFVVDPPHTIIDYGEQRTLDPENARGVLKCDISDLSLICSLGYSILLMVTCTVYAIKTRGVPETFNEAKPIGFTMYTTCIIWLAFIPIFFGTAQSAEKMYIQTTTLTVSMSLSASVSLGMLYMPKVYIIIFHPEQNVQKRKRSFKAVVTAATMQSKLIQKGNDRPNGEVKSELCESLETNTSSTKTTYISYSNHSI
The molecule `CC1=C(C(=O)OC(C)C)[C@]2(C(=O)N(CC(N)=O)c3ccccc32)C(C#N)=C(N)O1` registered a z-score of -0.0303.

With `C/C(=N\N1CCCCCC1)c1c(O)n(-c2ccccc2)c(=O)[nH]c1=O`, the z-score was 0.346.

`CSCCC(N=Cc1c(O)n(-c2ccc(Br)cc2)c(=O)[nH]c1=O)C(=O)OC(C)(C)C` (stereo not given) showed a z-score of -0.692.

In turn, `CCCCCCn1c(O)c(C=NCCCn2ccnc2)c(=O)[nH]c1=O` came in with a z-score of -0.0425.

`CC(C)N(CC#CCC1(O)c2ccccc2-c2ccccc21)C(C)C`: the z-score amounted to 0.341.

With `CN1CCN(Cc2cc(C(C)(C)C)c(O)c(C(C)(C)C)c2)CC1`, the z-score was -0.182.

`COc1ccc2nc(NC3=NCCN3)sc2c1` came in with a z-score of 0.0288.

Turning to `Nc1c(C(=O)OCc2ccccc2)c2nc3ccccc3nc2n1Cc1cccs1`, the z-score was found to be 0.248.

Regarding `CC(=O)c1c(C)[nH]c(C(=O)N2CCC3(CC2)OCCO3)c1C`, the z-score was 0.216.

In the case of `Fc1cccc(C2NCCc3[nH]cnc32)c1` (stereo not given), the z-score is -0.0834.

In turn, `C=CCn1c(O)c(C(CC)=Nc2ccc(N(CC)CC)cc2)c(=O)[nH]c1=O` had a z-score of -0.258.

In the case of `Cc1ccc(S(=O)(=O)N2CN3CCN(C3)C2)cc1`, the z-score was -0.0613.

For `CC(=NCC1CCCO1)c1c(O)n(-c2ccc(C)cc2)c(=O)[nH]c1=O` (stereo not given), the z-score came to 2.68.

`O=C1C2CCN(CC2)C1Cc1ccc(OCCOc2ccccc2)cc1` (stereo not given) showed a z-score of 0.571.

Regarding `O=C(Nc1ccccc1)NC1CC2CCC(C1)N2` (stereo not given), the z-score was found to be 0.293.

In turn, `CCn1c(O)c(/C=N/NC(=O)c2ccncc2)c(=O)[nH]c1=S` displayed a z-score of -0.229.

As to `CCOc1ccc(C2(C#N)CC[N+](C)(C)CC2)cc1`, the z-score is -0.105.

Consider `CCN1CCN(c2ncnc3ccc(Br)cc23)CC1`, for which the z-score was 0.327.

`O=C(Cc1ccccc1)N1CCN(C2CCCC2)CC1` came in with a z-score of -0.0866.

The molecule `C=Cn1ccnc1P(=S)(c1nccn1C=C)c1nccn1C=C` came in with a z-score of -0.442.

Molecule `O=P(O)(O)COc1ccccc1O` showed a z-score of -0.166.

On to `O=C(Nc1ccc(Cl)cc1C(=O)c1ccccc1Cl)c1ccco1`, for which the z-score is -0.383.

`Cc1ccccc1-n1c(-c2ccc([N+](=O)[O-])cc2)nc2ccccc2c1=O`: the z-score was -0.343.

In turn, `C=CCn1c(O)c(C(C)=Nc2ccc(C(=O)OCC)cc2)c(=O)[nH]c1=O` had a z-score of -1.3.

On to `O=c1c2cc([N+](=O)[O-])ccc2nc(CN2CCOCC2)n1-c1ccccc1F`, for which the z-score was -0.0712.

On to `O=C(Cc1ccccc1)N1CCN(C/C=C/c2ccccc2)CC1`, for which the z-score was active: 3.68.

As to `CCOC(=O)C(NC(=O)CC)(Nc1ccc(C(O)(C(=O)OCC)C(F)(F)F)cc1C)C(F)(F)F` (stereo not given), the z-score was determined as 0.000549.

As for `C=CCn1c(O)c(/C=N/N2CCOCC2)c(=O)[nH]c1=S`, the z-score came to 0.434.

The molecule `C=C(C)CSc1nnc([C@@H](N)Cc2c[nH]c3ccccc23)o1` had a z-score of 0.789.

As to `O=C1c2ccccc2C(=O)N1Cc1nc2ccccc2c(=O)n1-c1ccccn1`, the z-score was -0.323.

Regarding `CCOC(=O)c1ccc(N2C(=O)CC(N3CCC(C#N)(c4ccccc4)CC3)C2=O)cc1` (stereo not given), the z-score was -0.383.

Take `COc1cc(OC)cc(C(=O)Nc2ccc(Br)cc2C(=O)c2ccccc2)c1`: the z-score is -0.0953.

In turn, `COc1cccc(-c2cc(C(F)(F)F)n3nc(C(=O)N4CCC5(CC4)OCCO5)cc3n2)c1` registered a z-score of 0.0542.

Molecule `O=C(c1ccc(CNS(=O)(=O)c2ccccc2)cc1)N1CCC2(CC1)OCCO2` returned a z-score of 0.184.

`CN(Cc1ccccc1)Cc1ccccc1OC(=O)N(C)C` yielded a z-score of -0.21.

`CCCCc1ccc2[nH]cc(CCN)c2c1`: the z-score was 0.376.

`CN(C)c1ccc(NC(=O)CN2C(=O)CN=C(c3ccccc3)c3cc(Cl)ccc32)cc1`: the z-score amounted to 0.103.

Molecule `COC(=O)C(O)(c1ccc(NC(=S)NC(=O)c2ccccc2)cc1)C(F)(F)F` (stereo not given) registered a z-score of 0.443.

Molecule `Cc1nc2ccccc2c(=O)n1-c1ccccn1` had a z-score of -0.0538.

Molecule `CN(C)c1ccc(/C=C2/C(=O)NC(=O)N(Cc3ccco3)C2=O)cc1` gave a z-score of 0.552.

Take `N/C(=N\N=C\c1ccc(O)cc1O)N[N+](=O)[O-]`: the z-score turned out to be 0.414.

In turn, `COc1ccc2c(c1)CC1(CN2C)C(=O)NC(=O)N(c2ccc(F)cc2)C1=O` (stereo not given) showed a z-score of -0.434.

On to `CCN(CC)C(=O)c1ccc(NC(=O)COc2ccc([N+](=O)[O-])cc2Cl)cc1`, for which the z-score is -0.846.

Regarding `Fc1ccc(CCNCc2ccc(Cl)c(Cl)c2)cc1`, the z-score is -0.101.

As to `COC(=O)C(O)(c1ccc(NC(=O)c2ccco2)c(OC)c1)C(F)(F)F` (stereo not given), the z-score was -0.349.

`COc1ccc(OCC(=O)N2CCN(C(C)C)CC2)cc1`: the z-score is -0.168.

`CN1CCN(c2ccc([N+](=O)[O-])c(NCC3CCCO3)c2)CC1` (stereo not given) had a z-score of -0.11.

Molecule `Cc1cccc(N2C(=O)NC(=O)C3(Cc4cc(C)ccc4N(C)C3)C2=O)c1` (stereo not given) returned a z-score of 0.723.

`O=C(NCc1cccnc1)NC1CCCCC1` returned a z-score of -0.67.

The molecule `CNC(C)Cc1ccccc1Sc1ccc(O)cc1` (stereo not given) displayed a z-score of 0.806.

Take `Clc1ccc(-c2nc3ccc(Cl)cn3c2CN2CCOCC2)cc1`: the z-score is -0.662.

For the molecule `O=C(Nc1ccc(C(F)(F)F)cc1)c1cccn(Cc2ccc3c(c2)OC(F)(F)O3)c1=O`, the z-score was 0.0692.

`CC(C)N1CCC2(CC1)NC(CO)(CO)CO2` came in with a z-score of 0.413.

In turn, `C=CCn1c(O)c(C(C)=NCCC2=CCCCC2)c(=O)[nH]c1=O` registered a z-score of 1.62.

The molecule `O=C1CC(N2CCC(n3c(=O)[nH]c4ccccc43)CC2)C(=O)N1c1ccc(F)cc1` (stereo not given) came in with a z-score of -0.362.

With `O=c1c2ccccc2nc(-c2ccc(Cl)cc2Cl)n1-c1nccs1`, the z-score was -0.267.

On to `Clc1ccccc1CN1CCN(c2ccccc2)CC1`, for which the z-score is 0.284.

On to `O=C(Cc1ccccc1)N1CCN(Cc2ccccn2)CC1`, for which the z-score is -0.0688.

Take `COc1ccc(CCN(C)Cc2ccc(F)cc2F)cc1OC`: the z-score came out at 1.31.

In turn, `Cc1onc(-c2ccccc2)c1C(=O)N1CCC2(CC1)OCCO2` displayed a z-score of 0.5.

`CC1(C)N(O)C2CCCCC2N1O` (stereo not given) displayed a z-score of -0.159.

Consider `NC(=S)N/N=C/c1coc2ccccc2c1=O`, for which the z-score was -0.742.

`CCOP(=O)(OCC)C(CC)N1CCOCC1` (stereo not given) showed a z-score of 0.87.

`CCCCC1(CCCC)C(=O)NC(=Nc2cccc(C)c2)NC1=O` displayed a z-score of -0.0837.

`CCOC(=O)CC1=C(C(=O)OCC)C2(C(=O)Nc3ccccc32)C(C#N)=C(N)O1` (stereo not given): the z-score came out at 0.195.

As for `CC1CCN(CC(=O)c2ccccc2Cl)CC1`, the z-score is -0.387.

As to `Cc1ccc2c(c1)C1CN(C)CCC1N2C(=O)c1ccc(Br)o1` (stereo not given), the z-score is -0.216.

For `CC1CN(O)C2CCc3c(no[n+]3[O-])C12O` (stereo not given), the z-score was -0.143.

Regarding `Cn1c[n+](C)cc1C(O)c1ccccc1` (stereo not given), the z-score is -0.156.

Molecule `CCN(CC)c1ccc(N=Cc2c(O)n(-c3cc(OC)ccc3OC)c(=O)[nH]c2=O)cc1` came in with a z-score of -0.4.

For `Cc1cc(C(=O)N=Nc2c(O)n(C)c3ccccc23)c(C)o1`, the z-score amounted to 0.229.

For `Cc1cc([N+](=O)[O-])c(Cl)cc1NC(=O)C(C)C`, the z-score is -0.0536.

`Cn1c2ccccc2c2cnn(CC(=O)N3CCC4(CC3)OCCO4)c(=O)c21` yielded a z-score of 0.199.

As for `Cc1c(N=Cc2c(O)n(Cc3ccco3)c(=O)[nH]c2=O)c(=O)n(-c2ccccc2)n1C`, the z-score is -0.625.

In the case of `O=C(COc1ccc(Br)cc1)N1CCN(Cc2ccncc2)CC1`, the z-score is 0.813.

In the case of `COc1ccc(C(CC(=O)N2CCC3(CC2)OCCO3)NS(=O)(=O)c2ccc(F)cc2)cc1` (stereo not given), the z-score was -0.351.

Consider `CCCCSP1(=S)NCCCO1` (stereo not given), for which the z-score was -0.205.

Molecule `COc1cc(N2CCOCC2)ccc1/C=C1\C(=O)NC(=O)N(C2CCCCC2)C1=O` registered a z-score of -0.196.

As for `N#Cc1ccc(N2CCNCC2)c(F)c1`, the z-score was determined as 0.268.

Molecule `CCOC(=O)C(O)(c1ccc(N(CC)S(=O)(=O)c2ccc(C)cc2)cc1)C(F)(F)F` (stereo not given) had a z-score of 2.37.

Consider `C=CCn1c(O)c(C=Nc2ccc(N(CC)CC)cc2)c(=O)[nH]c1=O`, for which the z-score was -0.521.

Take `COC(=O)c1ccc(COc2cc(C)cc3oc(=O)c4c(c23)CCCC4)o1`: the z-score was -1.28.

`N#Cc1cc2c(nc1SCC(=O)Nc1ccc(Cl)cc1)C1CCN2CC1` displayed a z-score of -0.826.

On to `CCOC(=O)c1c(-n2c(C)cc(/C=C3\C(=O)NC(=O)N(C)C3=O)c2C)sc2c1CCCC2`, for which the z-score was -1.11.

In the case of `O=C1NC(=O)C(CCc2ccccn2)(Cc2ccc3c(c2)OCO3)C(=O)N1CCc1ccccc1` (stereo not given), the z-score is -0.603.

On to `c1ccc(-c2[nH]c[n+](CC3CO3)c2-c2ccccc2)cc1` (stereo not given), for which the z-score was -0.103.

For `CCC(C)n1c(O)c(/C=N/N2CCOCC2)c(=O)[nH]c1=S` (stereo not given), the z-score was -0.197.

Consider `O=C(COc1ccc(Cl)cc1)NC1CN2CCC1CC2` (stereo not given), for which the z-score was -0.215.

In turn, `Cc1cccc(C(O)(C(=O)NNC(=O)CN2CCN(C)CC2)c2cccc(C)c2)c1` gave a z-score of -0.488.

`CCC(=O)c1c(O)n(C2CCCCCC2)c(=O)[nH]c1=O` displayed a z-score of -0.283.

As to `C=CCN1C(=O)/C(=C/c2cc(C)n(-c3ccccn3)c2C)C(=O)NC1=S`, the z-score was -0.369.

`COc1cccc(CN2CCN(C(=O)COc3ccc4ccccc4c3)CC2)c1`: the z-score was -0.244.

Turning to `COc1ccc(C2=NCc3nnc(C)n3-c3ccc(Cl)cc32)cc1Cl`, the z-score was determined as 0.0544.

As to `CCCCCCN=C(C)c1c(O)n(Cc2ccccc2)c(=O)[nH]c1=O`, the z-score was -0.194.

Turning to `CCN1CC2(COC(=O)c3ccccc3N)CCC(OC)C34C5CC6C(OC)CC(O)(C5C6OC)C(O)(C(OC)C23)C14` (stereo not given), the z-score is -0.147.

`Cc1ccc(-n2c(-c3cccs3)nc3ccccc3c2=O)cc1` yielded a z-score of 0.454.

Regarding `Cc1cc(NC(=O)COC(=O)c2c(C)nn(Cc3ccccc3Cl)c2C)no1`, the z-score was -0.163.

Consider `Cn1c(O)c(C=NCc2ccco2)c(=O)n(C)c1=O`, for which the z-score is -0.19.

In turn, `Cc1ccnc(-n2c(-c3ccccc3)nc3ccccc3c2=O)c1` returned a z-score of -0.155.

Regarding `O=C(c1cc2ccccn2n1)N1CCC2(CC1)OCCO2`, the z-score was active: 4.

`CC(C)OC(=O)c1c(N)n(Cc2ccco2)c2nc3ccccc3nc12` came in with a z-score of -2.62.

Regarding `Cc1nn(Cc2ccccc2Cl)c(C)c1C(=O)OCC(=O)NC1CCCC(C)C1C` (stereo not given), the z-score was -0.319.

For the molecule `Cc1ccc2c(c1)C1CN(C)CCC1N2C(=O)Cn1nnc(-c2ccccc2F)n1` (stereo not given), the z-score is -1.09.

`COc1ccc(CC2C(=O)NC(=O)N(c3ccccc3)C2=O)c(OC)c1` (stereo not given) yielded a z-score of 0.821.

The molecule `CN1CCN(c2cc(N3CCCCCC3)c(F)cc2[N+](=O)[O-])CC1` gave a z-score of 1.51.

The molecule `COc1ccc(/C=C2/C(=O)NC(=O)N(C3CCCCC3)C2=O)cc1CSc1ccccn1` yielded a z-score of -0.105.

`Cc1c(C=C2C(=O)N(C)C(=O)N(C)C2=O)c(=O)n(-c2ccccc2)n1C` came in with a z-score of 0.52.

`COc1ccc(CCn2c(O)c(C=NCCCn3ccnc3)c(=O)[nH]c2=O)cc1OC` gave a z-score of 0.744.

As for `NP(=O)(OCC(F)(F)F)Oc1ccc(Cl)cc1` (stereo not given), the z-score was 0.0279.

The molecule `NCCc1ccc(O)cc1` gave a z-score of 0.452.
